These results are taken from patent publication US20250270341A1 (Alector, published 2025).

One assay has as its target T1, huCD98hc ECD Avi-His (human, UniProt P08195 105-529).
T1 construct: biotinylated on the Avi tag where captured on streptavidin; also called Human CD98-AVI-His; Human CD98hc-AVI-His
T1 sequence: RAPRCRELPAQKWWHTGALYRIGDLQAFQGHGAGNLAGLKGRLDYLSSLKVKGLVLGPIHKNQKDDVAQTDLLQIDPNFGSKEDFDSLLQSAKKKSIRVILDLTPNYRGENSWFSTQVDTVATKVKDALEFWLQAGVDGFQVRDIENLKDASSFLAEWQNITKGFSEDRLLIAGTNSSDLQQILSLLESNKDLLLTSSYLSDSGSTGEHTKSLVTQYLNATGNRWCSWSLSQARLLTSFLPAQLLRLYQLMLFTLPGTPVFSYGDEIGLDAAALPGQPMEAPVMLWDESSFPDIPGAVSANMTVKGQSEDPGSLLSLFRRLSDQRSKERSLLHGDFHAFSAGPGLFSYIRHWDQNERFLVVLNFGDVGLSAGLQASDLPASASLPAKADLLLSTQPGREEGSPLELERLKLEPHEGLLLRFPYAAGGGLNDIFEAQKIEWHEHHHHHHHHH
The assay can be described thus: SPR, Carterra LSA, antibody immobilized. The method, then:
(§1) Binding kinetics of 2+1 anti-CD98hc bispecific antibodies (from the hybridoma campaigns) to human and cyno CD98hc Avi-His were evaluated using a Carterra LSA instrument (Carterra, Salt Lake City, UT). The 2+1 anti-CD98hc bispecific antibodies were prepared in duplicates by diluting 50-fold into 10 mM Acetate, pH 5.0 (Carterra) to give final concentration of 20 μg/mL. An HC200M sensor chip (Carterra) was activated using the single channel flow cell with a 7-minute injection of a 1:1:1 mixture of 100 mM MES pH 5.5, 100 mM sulfo-NHS, 400 mM EDC (all reconstituted in MES pH 5.5; 100 μl of each mixed in vial immediately before running assay). After switching to the multi-channel array flow cell, the antibodies were injected over the activated chip in four 96-spot arrays for 15 minutes each. The remaining unconjugated active groups on the chip were then blocked by injecting 1M Ethanolamine pH 8.5 (Carterra) for 7 minutes using the single channel flow cell. The resulting sensor chip contained eight spots for each antibody, at four different densities. Two independent experiments were performed as follows, resulting in an N of between one and eight determinations for each antibody. Spots that yielded less than 20 RU of analyte binding were excluded from further analysis.
(§2) After priming with running buffer HBS-EP+ (Teknova) with 0.5 mg/ml BSA (MP Biomedicals), the immobilized 2+1 anti-CD98hc bispecific antibodies were tested for their ability to bind to several forms of CD98hc Avi-His, including human and cyno orthologs described above. Estimates of affinity were generated by injecting each analyte over the entire antibody array using the single channel flow cell. CD98hc Avi-His analytes were diluted with running buffer, in a series of six, three-fold serial dilutions starting from 600 nM for human and cyno CD98hc Avi-His. Analytes were injected for 5 minutes, and dissociation was followed for 10 minutes. After each analyte injection, antibodies were regenerated with Pierce IgG Elution Buffer (ThermoScientific). Data were processed and analyzed using NextGenKIT high-throughput kinetics analysis software (Carterra).
(§3) The equilibrium dissociation constants (KD) were calculated from the fitted association and dissociation rate constants (k-on and k-off) for 2+1 anti-CD98hc bispecific antibodies of the present disclosure.

The next assay concerns the target T2, Cyno CD98hc ECD Avi-His (cynomolgus macaque, UniProt P08195 105-529 (human entry)).
T2 construct: biotinylated on the Avi tag where captured on streptavidin; also called Cyno CD98-AVI-His; Cyno CD98hc-AVI-His
T2 chain: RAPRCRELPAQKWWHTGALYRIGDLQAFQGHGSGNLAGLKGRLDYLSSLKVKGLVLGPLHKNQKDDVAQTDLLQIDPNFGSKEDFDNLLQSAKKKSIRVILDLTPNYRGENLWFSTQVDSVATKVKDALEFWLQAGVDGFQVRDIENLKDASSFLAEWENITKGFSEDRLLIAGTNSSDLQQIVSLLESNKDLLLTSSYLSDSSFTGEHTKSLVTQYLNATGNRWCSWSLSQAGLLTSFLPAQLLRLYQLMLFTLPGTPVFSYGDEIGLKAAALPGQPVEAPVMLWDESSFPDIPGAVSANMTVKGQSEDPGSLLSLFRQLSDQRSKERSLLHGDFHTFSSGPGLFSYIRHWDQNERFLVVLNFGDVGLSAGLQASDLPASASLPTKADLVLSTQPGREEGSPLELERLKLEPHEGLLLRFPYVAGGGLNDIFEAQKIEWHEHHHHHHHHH
Put plainly: SPR, Carterra LSA, antibody immobilized. The method, then: as §1, §2, §3
A general note: SPR reads the build-up and loss of mass on a sensor chip optically.

B1: CD98hc.05.006 (2+1 bispecific antibody) (bispecific antibody)
heavy 1: EVRLLESGGGLVQPGGSLRLSCAASGFTFSNYAMGWVRQAPGKGLEWVSAISGSGGSTYYADSVKGRFTTSRDDSKNALYLQMNSLRAEDTAVYYCARGGPGWYAADVWGQGTTVTVSSASTKGPSVFPLAPSSKSTSGGTAALGCLVKDYFPEPVTVSWNSGALTSGVHTFPAVLQSSGLYSLSSVVTVPSSSLGTQTYICNVNHKPSNTKVDKKV[here human IgG1 Fc with changes without letters]GGGGSGGGGSGGGGSEVKLVESGGNLVQPGGSLKLSCAASGFTFSGYSMSWVRQTPDKRLEWVAYIGNGGDSTYYPYTVKGRFTISRDNAKNTLYLQMNSLKSEDSAMYYCARQYVNYPFFDYWGQGTTLTVSSGGSEGKSSGSGSESKSTGGSDIVMSQSPSSLTVSVGAKIILGCKSSQSLLYSGNQKNYLAWYQQKPGQSPKLLIYWASTRESGVPDRFTGSGSGTDFTLTISSVKAEDVAVYYCQQYYTYPPAFGAGTKLEIK
heavy 2: EVRLLESGGGLVQPGGSLRLSCAASGFTFSNYAMGWVRQAPGKGLEWVSAISGSGGSTYYADSVKGRFTTSRDDSKNALYLQMNSLRAEDTAVYYCARGGPGWYAADVWGQGTTVTVSS[here human IgG1 constant region with changes without letters]
light: DIQMTQSPSSLSASVGDRVTITCRASQSISSYLNWYQQKPGKAPKLLIYAASSLQSGVPSRFSGSGSGTDFTLTISSLQPEDFATYYCQQADLPAFAFGGGTKVEIKRTVAAPSVFIFPPSDEQLKSGTASVVCLLNNFYPREAKVQWKVDNALQSGNSQESVTEQDSKDSTYSLSSTLTLSKADYEKHKVYACEVTHQGLSSPVTKSFNRGEC
As a reminder, the Kd is the constant that tells how readily two partners part at equilibrium. In the case of B1, the figures for the Kd with huCD98hc ECD Avi-His and with Cyno CD98hc ECD Avi-His were 4.3 nM and 20 nM, respectively.

B2: CD98hc.05.081 (2+1 bispecific antibody) (bispecific antibody)
heavy 1: EVRLLESGGGLVQPGGSLRLSCAASGFTFSNYAMGWVRQAPGKGLEWVSAISGSGGSTYYADSVKGRFTTSRDDSKNALYLQMNSLRAEDTAVYYCARGGPGWYAADVWGQGTTVTVSSASTKGPSVFPLAPSSKSTSGGTAALGCLVKDYFPEPVTVSWNSGALTSGVHTFPAVLQSSGLYSLSSVVTVPSSSLGTQTYICNVNHKPSNTKVDKKV[here human IgG1 Fc with changes without letters]GGGGSGGGGSGGGGSEVQLQQSRPELVKPGASVKMSCKASGYTFTSYVMHWVKQKPGQGLEWIGYISPYNGDTKYNEKFKGKATLTSDISSTTAYMELSSLTSEDSGVYYCARPGSSPSWFAYWGQGTLVTVSSGGSEGKSSGSGSESKSTGGSDIVMTQFPATLSVTPGDRVSLSCRASQSISNYLHWYQQKSHESPRLLIKYASQSISGIPSRFSGSGSGSDFTLSINSVEPEDVGVYYCQNGHSFPYMYTFGGGTKLEIK
heavy 2: EVRLLESGGGLVQPGGSLRLSCAASGFTFSNYAMGWVRQAPGKGLEWVSAISGSGGSTYYADSVKGRFTTSRDDSKNALYLQMNSLRAEDTAVYYCARGGPGWYAADVWGQGTTVTVSS[here human IgG1 constant region with changes without letters]
light: DIQMTQSPSSLSASVGDRVTITCRASQSISSYLNWYQQKPGKAPKLLIYAASSLQSGVPSRFSGSGSGTDFTLTISSLQPEDFATYYCQQADLPAFAFGGGTKVEIKRTVAAPSVFIFPPSDEQLKSGTASVVCLLNNFYPREAKVQWKVDNALQSGNSQESVTEQDSKDSTYSLSSTLTLSKADYEKHKVYACEVTHQGLSSPVTKSFNRGEC
Consider B2, for which the affinity with Cyno CD98hc ECD Avi-His, expressed as Kd, was 80 nM.

B3: CD98hc.05.188 (2+1 bispecific antibody) (bispecific antibody)
heavy 1: EVRLLESGGGLVQPGGSLRLSCAASGFTFSNYAMGWVRQAPGKGLEWVSAISGSGGSTYYADSVKGRFTTSRDDSKNALYLQMNSLRAEDTAVYYCARGGPGWYAADVWGQGTTVTVSSASTKGPSVFPLAPSSKSTSGGTAALGCLVKDYFPEPVTVSWNSGALTSGVHTFPAVLQSSGLYSLSSVVTVPSSSLGTQTYICNVNHKPSNTKVDKKV[here human IgG1 Fc with changes without letters]GGGGSGGGGSGGGGSQVQLQQPGAELVRPGASVKLSCKASGYTFTSYWMSWVKQRPGQGLEWIGFITPSDSEALYSQMFKDKATLTVDKSSSTAHLQLSSLTSEDSAVYYCARWSYGNFAAMDYWGQGTSVTVSSGGSEGKSSGSGSESKSTGGSDIVMTQSPSSLAMSVGQKVTMSCKSSQSLLNSNNQKNYLAWYQQKPGQSPKLLVYFSSTRESGVPDRFIGSGSGTDFTLTITSVQAEDLADYFCQQHYSTPLTFGAGTKLEIK
heavy 2: EVRLLESGGGLVQPGGSLRLSCAASGFTFSNYAMGWVRQAPGKGLEWVSAISGSGGSTYYADSVKGRFTTSRDDSKNALYLQMNSLRAEDTAVYYCARGGPGWYAADVWGQGTTVTVSS[here human IgG1 constant region with changes without letters]
light: DIQMTQSPSSLSASVGDRVTITCRASQSISSYLNWYQQKPGKAPKLLIYAASSLQSGVPSRFSGSGSGTDFTLTISSLQPEDFATYYCQQADLPAFAFGGGTKVEIKRTVAAPSVFIFPPSDEQLKSGTASVVCLLNNFYPREAKVQWKVDNALQSGNSQESVTEQDSKDSTYSLSSTLTLSKADYEKHKVYACEVTHQGLSSPVTKSFNRGEC
In the case of B3, the Kd with huCD98hc ECD Avi-His worked out at 27 nM.

B4: CD98hc.05.126 (2+1 bispecific antibody) (bispecific antibody)
heavy 1: EVRLLESGGGLVQPGGSLRLSCAASGFTFSNYAMGWVRQAPGKGLEWVSAISGSGGSTYYADSVKGRFTTSRDDSKNALYLQMNSLRAEDTAVYYCARGGPGWYAADVWGQGTTVTVSSASTKGPSVFPLAPSSKSTSGGTAALGCLVKDYFPEPVTVSWNSGALTSGVHTFPAVLQSSGLYSLSSVVTVPSSSLGTQTYICNVNHKPSNTKVDKKV[here human IgG1 Fc with changes without letters]GGGGSGGGGSGGGGSEVKLVESGGNLVQPGGSLKLSCAASGFTFSGYPMSWVRRTPDKRLEWVAYIGSGGDSTYYPYAVKGRFTISRDNAKNTLYLQMNSLKSEDSAMYYCARQYDNYPFFDYWGQGTTLTVSSGGSEGKSSGSGSESKSTGGSDFVMSQSPSSLTVSVGAKVIMSCKSSQSLLYSGNQKNYLAWYQQKPGQSPKLLIYWASTRESGVPDRFTGSGSGTDFTLTISSVKAEDLAVYYCQQYYTYPPTFGAGTKLEIK
heavy 2: EVRLLESGGGLVQPGGSLRLSCAASGFTFSNYAMGWVRQAPGKGLEWVSAISGSGGSTYYADSVKGRFTTSRDDSKNALYLQMNSLRAEDTAVYYCARGGPGWYAADVWGQGTTVTVSS[here human IgG1 constant region with changes without letters]
light: DIQMTQSPSSLSASVGDRVTITCRASQSISSYLNWYQQKPGKAPKLLIYAASSLQSGVPSRFSGSGSGTDFTLTISSLQPEDFATYYCQQADLPAFAFGGGTKVEIKRTVAAPSVFIFPPSDEQLKSGTASVVCLLNNFYPREAKVQWKVDNALQSGNSQESVTEQDSKDSTYSLSSTLTLSKADYEKHKVYACEVTHQGLSSPVTKSFNRGEC
Turning to B4, the Kd in the assay with huCD98hc ECD Avi-His was found to be 7.5 nM; with Cyno CD98hc ECD Avi-His, 23 nM.
